One assay relates to HSkMC. As to the kind of experiment: cytotoxicity call (relative viability < 0.9). Particulars: 10 µM.
A further assay has as its system HepG2. As to the kind of experiment: cytotoxicity call (relative viability < 0.9). The conditions noted are these: 10 µM.
Another assay relates to S. aureus RN4220. Nature of the assay: growth inhibition call (relative growth <= 0.2). The conditions noted are these: 50 µM.

The list shows a part of the results.

The record followed here is the antibiotic and cytotoxicity screens of Wong et al. (2023).

Turning to `C[C@@H]1CN([C@@H](C)CO)C(=O)c2cc(NS(=O)(=O)c3cccs3)ccc2O[C@@H](C)CCCCO[C@H]1CN(C)C(=O)c1ccccc1`, the cytotoxicity call in the assay on HSkMC and in the assay on HepG2 was “inactive” throughout. In the assay with S. aureus RN4220, the growth inhibition call is “inactive”.
Consider `CO[C@@H]1[C@@H](O[C@@H]2O[C@H](C)[C@@H](O[C@H]3C[C@@](C)(O)[C@@H](OC(=O)CC(C)C)[C@H](C)O3)[C@H](N(C)C)[C@H]2O)[C@@H](CC=O)C[C@@H](C)[C@@H](O)/C=C/C=C/CC(C)OC(=O)C[C@H]1OC(C)=O` (some centres not stated), for which the cytotoxicity call in the assay with HSkMC and in the assay on HepG2 was “active” each time. Also, the growth inhibition call in the assay with S. aureus RN4220 is “inactive”.
`CC(C)NC(=O)N(C)C[C@H]1OCCCC[C@H](C)Oc2ccc(NC(=O)Nc3ccccc3)cc2C(=O)N([C@@H](C)CO)C[C@H]1C`: the cytotoxicity call in the assay on HSkMC and in the assay on HepG2 was “inactive” throughout. Moreover, the growth inhibition call in the assay with S. aureus RN4220 was “inactive”.
On to `C[C@@H]1CN([C@@H](C)CO)C(=O)c2cc(/C=C/c3ccccc3)cnc2O[C@@H]1CN(C)C(=O)CN1CCOCC1`, for which the cytotoxicity call in the assay on HSkMC and with HepG2 was “inactive” throughout. Moreover, the growth inhibition call with S. aureus RN4220 is “inactive”.
`C[C@@H]1CN([C@@H](C)CO)C(=O)c2cc(NS(=O)(=O)c3cccs3)ccc2O[C@@H]1CN(C)CC1CC1`: the cytotoxicity call in the assay on HSkMC and in the assay with HepG2 was “inactive” each time. Further, the growth inhibition call with S. aureus RN4220 was “inactive”.
On to `NC(=S)c1cnc(-c2ccncc2)nc1N`, for which the cytotoxicity call with HSkMC and in the assay with HepG2 was “inactive” in each case. The growth inhibition call in the assay on S. aureus RN4220 was “inactive”.
`OCC1OC(OC2(CCl)OC(CCl)C(O)C2O)C(O)C(O)C1Cl` (configuration not stated): the cytotoxicity call with HSkMC and in the assay with HepG2 was “inactive” each time. Besides, in the assay with S. aureus RN4220, the growth inhibition call was “inactive”.
Turning to `C[C@H](CO)N1C[C@H](C)[C@@H](CN(C)S(=O)(=O)c2cccs2)OCCCC[C@H](C)Oc2ccc(NC(=O)CCC(F)(F)F)cc2C1=O`, the cytotoxicity call in the assay on HSkMC (human skeletal muscle cells) and in the assay with HepG2 was “inactive” throughout. For the same compound, the growth inhibition call with S. aureus RN4220 is “inactive”.
For `COc1ccc(CN(C)C[C@@H]2Oc3ccc(NS(=O)(=O)c4c(C)noc4C)cc3C(=O)N([C@H](C)CO)C[C@H]2C)cc1`, the cytotoxicity call with HSkMC and in the assay on HepG2 was “inactive” in each case. The growth inhibition call with S. aureus RN4220 was “inactive”.
